This is one part of the list. The full chains were built here from the parent and the listed change. Inactive controls read about 0.05.
B1: TEV protease; numbered along this chain (parent)
chain: MGESLFKGPRDYNPISSSICHLTNESDGHTTSLYGIGFGPFIITNKHLFRRNNGTLVVQSLHGVFKVKDTTTLQQHLVDGRDMIIIRMPKDFPPFPQKLKFREPQREERICLVTTNFQTKSMSSMVSDTSCTFPSGDGIFWKHWIQTKDGQCGSPLVSTRDGFIVGIHSASNFTNTNNYFTSVPKNFMELLTNQEAQQWVSGWRLNADSVLWGGHKVFMVKPEEPFQPVKEATQL

Variants of: B1
Assay: raw area under fraction-flipped curve 0-4 h after induction (AUC4h, not background-subtracted), DNA-recorder readout of cleavage of the substrate (dimensionless); higher = more cleavage of the substrate by the protease variant
Details: temperature: 34 °C; time window: 0-4 h after rhamnose induction
Procedure: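 In vivo DNA recorder in E. coli TOP10(DE3) ΔrhaA at 34 °C. Each TEVp single-site mutant (parent TEVp 0) is paired with a single-site variant of the 7-mer TEVs (canonical ENLYFQ|S). The substrate sits between flexible linkers in a Bxb1-sfGFP-TEVs-SsrA fusion, so cleavage stabilises Bxb1 and speeds flipping of a recombination array, read by NGS. The value is the raw area under the fraction-flipped curve over 0-4 h after rhamnose induction (AUC4h), with ≥20 reads per time point. It is not background-subtracted; inactive controls average about 0.047.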
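Further: Bxb1 expression induced with 0.2% (w/v) L-rhamnose at OD600 near 0.5, cultures sampled hourly, flipped fraction per protease–substrate barcode pair counted by paired-end Illumina sequencing.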

Variant	area with substrate EALYFQS	area with substrate ECLYFQS	area with substrate EDLYFQS	area with substrate EELYFQS	area with substrate EGLYFQS	area with substrate EHLYFQS	area with substrate EILYFQS	area with substrate EPLYFQS	area with substrate ERLYFQS	area with substrate ESLYFQS	area with substrate EVLYFQS	area with substrate EYLYFQS	area with substrate ELLYFQS	area with substrate EMLYFQS	area with substrate EQLYFQS	area with substrate ETLYFQS	area with substrate EWLYFQS	area with substrate EKLYFQS	area with substrate EFLYFQS
P155Y	0.0495	0.0511	0.0817	0.0548	0.0375	0.0471	0.0574	0.0549	0.063	0.0523	0.062	0.0484	–	–	–	–	–	–	–
G202M	0.0818	–	–	–	–	0.0866	0.0565	–	0.0888	–	0.0657	0.0648	0.0753	0.0534	0.0703	0.0779	0.0775	–	–
L156V	0.108	–	0.0814	0.0806	0.0896	0.124	0.0938	0.154	0.0964	0.102	0.111	0.112	0.106	0.12	0.13	0.121	0.0957	0.133	–
L156I	0.134	–	0.114	–	–	–	0.0922	0.093	0.0794	0.0918	0.0887	–	0.0976	0.0922	–	–	0.106	0.0917	–
L156D	0.0288	0.0479	–	0.107	0.0324	–	0.0443	–	–	0.0475	0.0636	–	0.0559	0.0597	0.0501	–	0.0469	0.0647	0.0525
S201L	0.105	0.0844	–	–	–	–	0.11	0.0897	–	–	–	0.0836	–	0.0906	0.0851	0.0957	0.0883	0.107	–
S201I	0.131	0.0978	–	0.112	–	–	0.098	–	0.105	–	0.0753	0.077	–	0.0994	0.0939	–	0.0947	0.114	0.0893
N186W	0.111	0.0848	–	0.111	–	–	0.0804	0.133	–	0.103	0.101	0.0758	–	0.109	0.102	–	0.0788	0.0766	–
A207Y	0.0927	–	0.104	0.111	–	–	0.0843	0.0701	0.0909	0.098	0.0761	0.132	0.08	0.102	0.126	–	–	–	–
A207E	0.142	0.123	0.0768	0.125	–	–	–	–	–	0.161	0.113	–	–	–	–	–	–	0.144	0.0964
N206T	0.125	0.107	0.113	0.117	–	–	–	0.138	–	–	–	0.0957	0.0906	0.108	–	0.128	–	–	–
S169R	0.0386	0.0622	0.0507	–	–	0.0428	0.0541	0.0721	0.0402	0.0471	0.0636	–	0.069	0.0506	–	–	0.058	0.06	–
T159L	0.11	0.115	–	0.105	0.0815	0.129	0.098	0.0983	0.113	0.0926	0.0988	0.144	–	–	0.132	–	–	–	–
Y179Q	0.056	0.0693	0.0525	0.0453	0.0447	0.0584	0.057	0.0921	0.0541	0.0518	0.0609	0.0595	0.0643	0.0608	0.0653	0.0534	–	0.0759	0.0382
Y179T	0.05	0.0573	0.0767	–	–	–	0.0375	–	0.0935	0.0692	–	–	–	0.0921	0.0661	–	–	0.0484	0.0807
